Data on 57 sequences can be found in the supplement of paper PMC11417369.

± gives the standard deviation of the averaged measurements. The list shows a part of the results.

The test system of the assay is PfAP2-G AP2 domain (GST-tagged). The assay can be described thus: gcPBM binding intensity (ln(normalized median fluorescence intensity)); higher = stronger DNA binding. Summed up: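 In this array assay, P. falciparum DNA-binding domains with a GST tag, expressed in E. coli, were applied for 1 h to primer-extended double-stranded 36-bp intergenic genomic probes and negative controls on an Agilent 4 × 180k array. Bound protein was visualised with Alexa488 anti-GST antibody at 488 nm. Binding intensity is the highest Masliner-normalised natural-log median intensity across replicate spots of either probe orientation.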
Regarding “GTTACATACCTATACACACACATATATAAATAAATA [CACACA_site6549]”, the “gcPBM binding intensity (ln)” value was found to be 10.2 ± 0.18. The same measure for “TTATTATGTATATATGCACACAATACCCAAAACAAC [CACACA_site80]”: 10.7 ± 0.43; for “TAATATATATATAATACACACTATTTTAATCACATA [CACACA_site4849]”: 9.84 ± 0.014.

As for “ATGTACTATGATAATGCATGCAATAATACATTTTTA [TGCATGCA_site318]”, the “gcPBM binding intensity (ln)” value was found to be 10.9 ± 0.82. The same measure for “GAAAATATTTCTATCTGTACTTATTTATATATATAT [XGTACX_site7317]”: 11.6 ± 1.1; for “AAAAATAATCATAGTAGTACAAAAAAAAAAAAAAAA [XGTACX_site3736]”: 11.3 ± 1.1. The figure for “TACGTAAATTCTAATACACACTATAGGATATTCTGC [CACACA_site7248]” is 9.81 ± 0.099; for “TTTATTGCTCTATATGCACACCTTAATTCTTCATTT [CACACA_site8682]” it is 10.03 ± 0.021; for “GAAGATTTATCTTGCACACGCAAAAAAAAAAAAAAA [CACACA_site154]” it is 9.91 ± 0.42. Turning to “TTCTATATATTATATGCATGTAAAACATATTAAAAT [TGCATGCA_site662]”, the “gcPBM binding intensity (ln)” value was 9.87 ± 0.12. The same measure for “TTTTTATGAAAATAAACACACGATTTATTATATATA [CACACA_site1311]”: 9.715 ± 0.007; for “TGCATGTAATTTTTGTGTCCACATAAAATATTTAAT [XGTACX_site5652]”: 11.6 ± 1; for “TTTTTCAATTGTAGTGGTACAGATATAATTATCTCT [XGTACX_site5500]”: 11.4 ± 0.88.

“ATATGTACAAGTTATACACACATGTACAGTTATATA [CACACA_site6706]”: the “gcPBM binding intensity (ln)” value was found to be 11.6 ± 0.91. On to TTTAACATTTCAGATGTGCACATTTTCCGAACCAGT, for which the “gcPBM binding intensity (ln)” value came to 10.7 ± 0.47.

As to “TTACATACATACAAGTGTACGCATATATTAATATTA [XGTACX_site4006]”, the “gcPBM binding intensity (ln)” value came to 11.8 ± 1. As to “AGAACGACTAAGCAGTGTACATTTTGTATATACAAT [XGTACX_site2831]”, the “gcPBM binding intensity (ln)” value was found to be 11 ± 0.59. As for “TAAATGTGTATATATTGTACAAATATTAATACATAC [XGTACX_site8102]”, the “gcPBM binding intensity (ln)” value came out at 10.8 ± 0.34. The same measure for “AAATTGTTAAAAAGAAGTACATTCTTTTATTTCTTA [XGTACX_site540]”: 11.3 ± 0.71; for “AAAGAACTTAATGCTGCACACAAAAAAAAGGAAAAA [CACACA_site8375]”: 10 ± 0.27; for TGATATTTTTCCATAGTGCAAAATATAGTAATGTAT: 10 ± 0.2. Turning to “ATAATGAAGACTTTTTTACACACTTCATATATTATA [CACACA_site8630]”, the “gcPBM binding intensity (ln)” value amounted to 10.01 ± 0.042.

On to “ACAAACTAAAAAAGAAGTACAAATCGTATTAATAAT [XGTACX_site8684]”, for which the “gcPBM binding intensity (ln)” value was 11.4 ± 0.82. The same measure for “TTTTTTGAAAATAAAAGTACAAATTTTATATTTAAA [XGTACX_site2758]”: 11 ± 0.88; for “TATTATATATGGAAGTAATAATATATATATATATAT [GTGCAC_negctrl_site63]”: 9.8 ± 0.25; for “AGAAAAAAACGGTACAGTACACATAAACTAATTATT [XGTACX_site8617]”: 11.5 ± 0.99. The same measure for “GATTAAATTTGACACTGTACAAAAAATAAAATGAGG [XGTACX_site504]”: 11 ± 0.6; for “ATGAATATAAAATATACACACTTATATATTGAATGA [CACACA_site4274]”: 9.725 ± 0.078; for “GTTAATTCATTAAGGACACACAAAAAAAAAAAAAAA [CACACA_site998]”: 10.8 ± 0.79. The same measure for “AAACAACATGGACACGCACACACAAAAAAAGCATGC [CACACA_site73]”: 11 ± 0.48; for “TTAACAAAATTTCCGTGTACGTAAATAAGAACATAG [XGTACX_site7200]”: 11.8 ± 0.95. Consider “CCAACATAGAGGGGCACACACATATATACATAAAAA [CACACA_site1847]”, for which the “gcPBM binding intensity (ln)” value was 10.8 ± 0.65. The figure for “AGTATACATATATATACACACACATATATATATATA [CACACA_site7883]” is 10 ± 0.37; for “CTTATATGAAGCCTCTTTATTCATAAATAAGAATAA [TGCATGCA_negctrl_site120]” it is 9.77 ± 0.099.

Take “AAAAAATTCAAAATCACACATAAAAAAGGACACATA [CACACA_site5972]”: the “gcPBM binding intensity (ln)” value is 11.4 ± 0.79.

On to “CCTACAATTCGTAATACACACACATATATATATATA [CACACA_site9251]”, for which the “gcPBM binding intensity (ln)” value was 10.3 ± 0.3. The figure for “AAAAAAAAAAAAAACACACACATATAATATATTTAA [CACACA_site1337]” is 9.62 ± 0.18; for “TCATATTATAAAAAATGTACAAGGAAAAAATATATA [XGTACX_site337]” it is 11 ± 0.43. The figure for “TAATTTTGTAAAAATTGTACATATTTATCTTTTTAT [XGTACX_site4305]” is 11.1 ± 0.81; for “TATATTATAAATTAATGTACGTAATTTTTTTTTTTT [XGTACX_site2500]” it is 11.5 ± 0.93. The same measure for “AGAATCACCAAATATGTACACACCTTAACATGTTTA [CACACA_site2068]”: 11.4 ± 0.91. For the sequence “ATATATATGGTCATTTGTACATATCGTGAGAGCTGC [XGTACX_site4117]”, the “gcPBM binding intensity (ln)” value came out at 11 ± 0.49. The same measure for “ATATAACATAATGGATGTACATGTATAAATATAAAA [XGTACX_site8228]”: 11.2 ± 0.76; for “TAAACATACAGATACACACACACACCCACAGAGACA [CACACA_site4429]”: 10.4 ± 0.34; for “TTTTTTTTTTACTTCACACATATACATTTATATTTA [CACACA_site4385]”: 9.96 ± 0.071. The figure for “ATATATACAAATCCTTTTTTCCAAGATGGAAAAAGA [CACACA_negctrl_site382]” is 10 ± 0.12; for “AAAATAATAAATAACGCATGCGTGTGCATTTTATTC [TGCATGCA_site898]” it is 10.1 ± 0.23.

Regarding “ATTATATAATCTATATGTACATATATATATATATAT [XGTACX_site4970]”, the “gcPBM binding intensity (ln)” value is 11.3 ± 0.8.

On to “TATATATAAGCGCATGCACACGCAAAGGTATATAAA [CACACA_site8107]”, for which the “gcPBM binding intensity (ln)” value turned out to be 10.05 ± 0.057.

Take “CTTGGGCGTCATAATGAACACACAATTATATTATGA [CACACA_site9297]”: the “gcPBM binding intensity (ln)” value amounted to 10.4 ± 0.46. Turning to “TTATTACCATATTTTGTACACACATCTTTATCTCAA [CACACA_site9054]”, the “gcPBM binding intensity (ln)” value is 11.2 ± 0.6. The figure for “TTTTGTCAACATTTTTATATTAGGTCTTGAACGATT [GTGCAC_negctrl_site72]” is 10.2 ± 0.18.

Turning to “GTATAATTTAAAAAGTGTACATAAAGTTTTTATTAA [XGTACX_site1090]”, the “gcPBM binding intensity (ln)” value stood at 11.6 ± 0.81. The figure for “AGTAATAAGTAATTTACACACATATTATAGCATCAC [CACACA_site6971]” is 10 ± 0.14; for “ATAATAATATTATTTTGTACATATGTGCTTATTTAT [XGTACX_site5540]” it is 10.9 ± 0.47. With “TTTTTGTGCATTGATTGTACTTTCTAGGATTATTAA [XGTACX_site7070]”, the “gcPBM binding intensity (ln)” value turned out to be 11.2 ± 0.72. The same measure for “TTTTTTTACTTAATAGTTCAACATATATCTCAATGT [CACACA_negctrl_site620]”: 9.885 ± 0.007.
